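Interpolation was linear, between the two tested concentrations surrounding the appropriate level; five concentrations were tested over 48 hours in 96-well plates. Here, GI50 denotes the concentration required for 50% inhibition of growth. The concentration for full growth arrest is given as TGI.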 Where only a bound is given, the exact number is not on record here.

The experiment relates to NCI-H322M lung. As to the kind of experiment: DTP human tumour cell line panel, 48 h.
Regarding `COCOc1cc2c(=O)c(C)c(C(=O)N[C@@H](Cc3ccccc3)C(O)C(=O)NCc3ccccc3)oc2cc1OC` (stereo not given in full), the GI50 is greater than 100 µM and the TGI was greater than 100 µM.

For the molecule `Cn1cc(-c2nc(N)nnc2-c2c[nH]c3ccc(F)cc23)c2cc(Br)cnc21`, the GI50 was 0.305 µM and the TGI was 16.2 µM.

Take `COc1cc(C2C(C(=O)OCc3ccccc3)=C(C)Nc3nc4ccccc4n32)cc(OC)c1OC` (stereo not given): the GI50 was 4.94 µM and the TGI came to 59 µM.

For `C[C@H]1[C@H](C)CC[C@]2(COC(=O)CCC(=O)NCC#CCN3CCNCC3)CC[C@]3(C)C(=CC[C@@H]4[C@@]5(C)CCCNC(C)(C)[C@@H]5CC[C@]43C)[C@H]12`, the GI50 was 15.5 µM and the TGI was 28.8 µM.

On to `O=C(Nc1ccc(OCc2ccc(Cl)cc2)cc1)Nc1ccc(Cl)c(C(F)(F)F)c1`, for which the GI50 is 2.48 µM and the TGI was 8.91 µM.

As usually defined, the GI50 is the concentration at which growth is held to half of that of the control. Broadly, the TGI is the concentration giving total growth inhibition. A low value points to greater sensitivity of the cells.

For the origin of these results see PubChem BioAssay (NCI).
